Target: T1, human Nectin-4 on cell membrane surface (human, UniProt Q96NY8 32-510)
T1 sequence (looked up): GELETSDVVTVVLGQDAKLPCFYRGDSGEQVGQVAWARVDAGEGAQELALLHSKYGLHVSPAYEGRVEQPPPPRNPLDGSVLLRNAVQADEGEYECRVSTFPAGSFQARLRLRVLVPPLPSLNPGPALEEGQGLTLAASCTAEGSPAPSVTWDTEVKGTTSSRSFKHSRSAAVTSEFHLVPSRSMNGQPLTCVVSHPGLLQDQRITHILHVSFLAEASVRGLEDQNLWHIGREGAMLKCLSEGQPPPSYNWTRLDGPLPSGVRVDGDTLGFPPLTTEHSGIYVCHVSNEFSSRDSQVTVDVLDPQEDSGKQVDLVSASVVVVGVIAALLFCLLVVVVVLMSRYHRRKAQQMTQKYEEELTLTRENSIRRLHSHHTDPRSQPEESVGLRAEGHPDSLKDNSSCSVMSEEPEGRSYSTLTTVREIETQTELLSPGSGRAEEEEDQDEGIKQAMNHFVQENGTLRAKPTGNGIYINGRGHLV
Assay: cell-based or functional assay

B1: anti-human Nectin-4 ADC 56HZ-TL001 (other, DAR 7.71)
heavy: QVQLQESGPGLVKPSQTLSLTCTVSGYFNSITSDYDWHWIRHHPGKGLEWMGYISFSGRTYYNPSLKSRVTISHDTSKNQFSLKLSSVTAADTAVYYCARGNYDGFDYWGQGTLVTVSS[human IgG1 constant region not printed]
light: DIVLTQSPATLSLSPGERATLSCRASQNIGTSIHWYQHKPGQSPRLLIKFASESISGIPARFSGSGSGTDFTLTISSLEPEDFAVYYCQQSKSWPTYTFGGGTKVEIKRTVAAPSVFIFPPSDEQLKSGTASVVCLLNNFYPREAKVQWKVDNALQSGNSQESVTEQDSKDSTYSLSSTLTLSKADYEKHKVYACEVTHQGLSSPVTKSFNRGEC
modifications: TL001 linked by thioether bond to sulfhydryl groups
killing activity EC50 on NCI-N87 cells (CCK8): 10.9 µg/mL | killing activity EC50 on T24-Nectin-4 cells (CCK8): 1.57 µg/mL
